Data from PMC12820563.
This is one part of the list. The list includes weakly bound sequences.

These sequences were tested against T1, MBP-FoxP3dN (UniProt Q99JB6) (assay: PD-seq (MBP pull-down with sequencing)). Settings: 20 mM Tris-HCl pH 7.5, 100 mM NaCl, 1.5 mM MgCl2, 0.4 uM protein, 0.1 uM dsDNA library, 30 min, room temperature, amylose pull-down; high values mean tight binding; double strand, one strand shown.
T1 sequence: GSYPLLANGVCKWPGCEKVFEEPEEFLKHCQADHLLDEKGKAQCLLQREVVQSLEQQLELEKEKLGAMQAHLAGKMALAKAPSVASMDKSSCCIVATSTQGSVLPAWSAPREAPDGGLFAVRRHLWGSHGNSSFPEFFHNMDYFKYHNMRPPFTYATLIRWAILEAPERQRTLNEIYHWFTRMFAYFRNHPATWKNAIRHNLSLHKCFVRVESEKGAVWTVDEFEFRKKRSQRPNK

For “GATGATTGTTCTCCCAGCTGATGAATTGCCCATGTCGAGTAAACAAATTTTCCTAATCTTTCTGTTCAAGCGCCATCTAC”, which binding signal (RPM ratio (pull-down/input)) is on record?
Its binding signal (RPM ratio (pull-down/input)) is 0.577.

How did the binding signal (RPM ratio (pull-down/input)) turn out when “GATGATTGTTCTCCCAGCTGATGAATTACAGCAATCGAGTAAACAAATTTTCCTAATCTTTCTGTTCAAGCGCCATCTAC” was run?
Its binding signal (RPM ratio (pull-down/input)) is 1.85.

“GATGATTGTTCTCCCAGCTGATGAATTCATCGTTTCGAGTAAACAAATTTTCCTAATCTTTCTGTTCAAGCGCCATCTAC” was tested. Which binding signal (RPM ratio (pull-down/input)) did it give?
Its binding signal (RPM ratio (pull-down/input)) is 0.96.

How did the binding signal (RPM ratio (pull-down/input)) turn out when “GATGATTGTTCTCCCAGCTGATGAATTCGCTGGCTCGAGTAAACAAATTTTCCTAATCTTTCTGTTCAAGCGCCATCTAC” was run?
The binding signal (RPM ratio (pull-down/input)) was 0.441.

“GATGATTGTTCTCCCAGCTGATGAATTCGATAGATCGAGTAAACAAATTTTCCTAATCTTTCTGTTCAAGCGCCATCTAC” was tested. Which binding signal (RPM ratio (pull-down/input)) did it give?
The binding signal (RPM ratio (pull-down/input)) was 0.348.

With “GATGATTGTTCTCCCAGCTGATGAATTGCTGGATTCGAGTAAACAAATTTTCCTAATCTTTCTGTTCAAGCGCCATCTAC” as the sequence, how does the binding signal (RPM ratio (pull-down/input)) read?
Its binding signal (RPM ratio (pull-down/input)) is 0.456.

“GATGATTGTTCTCCCAGCTGATGAATTTCCGTTATCGAGTAAACAAATTTTCCTAATCTTTCTGTTCAAGCGCCATCTAC” was tested. Which binding signal (RPM ratio (pull-down/input)) did it give?
Its binding signal (RPM ratio (pull-down/input)) is 0.615.

“GATGATTGTTCTCCCAGCTGATGAATTTGACTTCTCGAGTAAACAAATTTTCCTAATCTTTCTGTTCAAGCGCCATCTAC” was tested. Which binding signal (RPM ratio (pull-down/input)) did it give?
The binding signal (RPM ratio (pull-down/input)) was 0.65.

With “GATGATTGTTCTCCCAGCTGATGAATTTCGTTGATCGAGTAAACAAATTTTCCTAATCTTTCTGTTCAAGCGCCATCTAC” as the sequence, how does the binding signal (RPM ratio (pull-down/input)) read?
Its binding signal (RPM ratio (pull-down/input)) is 1.72.

“GATGATTGTTCTCCCAGCTGATGAATTTCCGACATCGAGTAAACAAATTTTCCTAATCTTTCTGTTCAAGCGCCATCTAC” was tested. Which binding signal (RPM ratio (pull-down/input)) did it give?
Its binding signal (RPM ratio (pull-down/input)) is 0.414.

With “GATGATTGTTCTCCCAGCTGATGAATTCGACAGATCGAGTAAACAAATTTTCCTAATCTTTCTGTTCAAGCGCCATCTAC” as the sequence, how does the binding signal (RPM ratio (pull-down/input)) read?
Its binding signal (RPM ratio (pull-down/input)) is 0.181.

Which binding signal (RPM ratio (pull-down/input)) does the source give for “GATGATTGTTCTCCCAGCTGATGAATTAAGCCAATCGAGTAAACAAATTTTCCTAATCTTTCTGTTCAAGCGCCATCTAC” here?
The binding signal (RPM ratio (pull-down/input)) was 0.556.

For “GATGATTGTTCTCCCAGCTGATGAATTCCCGCAGTCGAGTAAACAAATTTTCCTAATCTTTCTGTTCAAGCGCCATCTAC”, which binding signal (RPM ratio (pull-down/input)) is on record?
Its binding signal (RPM ratio (pull-down/input)) is 0.397.

“GATGATTGTTCTCCCAGCTGATGAATTCAGGCCCTCGAGTAAACAAATTTTCCTAATCTTTCTGTTCAAGCGCCATCTAC” was tested. Which binding signal (RPM ratio (pull-down/input)) did it give?
Its binding signal (RPM ratio (pull-down/input)) is 0.381.

How did the binding signal (RPM ratio (pull-down/input)) turn out when “GATGATTGTTCTCCCAGCTGATGAATTTTTGATATCGAGTAAACAAATTTTCCTAATCTTTCTGTTCAAGCGCCATCTAC” was run?
The binding signal (RPM ratio (pull-down/input)) was 0.496.

How did the binding signal (RPM ratio (pull-down/input)) turn out when “GATGATTGTTCTCCCAGCTGATGAATTGGGTTACTCGAGTAAACAAATTTTCCTAATCTTTCTGTTCAAGCGCCATCTAC” was run?
The binding signal (RPM ratio (pull-down/input)) was 0.979.

Which binding signal (RPM ratio (pull-down/input)) does the source give for “GATGATTGTTCTCCCAGCTGATGAATTAGAATTCTCGAGTAAACAAATTTTCCTAATCTTTCTGTTCAAGCGCCATCTAC” here?
The binding signal (RPM ratio (pull-down/input)) was 0.556.

With “GATGATTGTTCTCCCAGCTGATGAATTGTACGATTCGAGTAAACAAATTTTCCTAATCTTTCTGTTCAAGCGCCATCTAC” as the sequence, how does the binding signal (RPM ratio (pull-down/input)) read?
The binding signal (RPM ratio (pull-down/input)) was 0.373.

For “GATGATTGTTCTCCCAGCTGATGAATTGCTCGGCTCGAGTAAACAAATTTTCCTAATCTTTCTGTTCAAGCGCCATCTAC”, which binding signal (RPM ratio (pull-down/input)) is on record?
Its binding signal (RPM ratio (pull-down/input)) is 0.337.

Which binding signal (RPM ratio (pull-down/input)) does the source give for “GATGATTGTTCTCCCAGCTGATGAATTGGATCGTTCGAGTAAACAAATTTTCCTAATCTTTCTGTTCAAGCGCCATCTAC” here?
The binding signal (RPM ratio (pull-down/input)) was 0.402.

With “GATGATTGTTCTCCCAGCTGATGAATTAATGTTCTCGAGTAAACAAATTTTCCTAATCTTTCTGTTCAAGCGCCATCTAC” as the sequence, how does the binding signal (RPM ratio (pull-down/input)) read?
Its binding signal (RPM ratio (pull-down/input)) is 1.56.

How did the binding signal (RPM ratio (pull-down/input)) turn out when “GATGATTGTTCTCCCAGCTGATGAATTACGCGGGTCGAGTAAACAAATTTTCCTAATCTTTCTGTTCAAGCGCCATCTAC” was run?
The binding signal (RPM ratio (pull-down/input)) was 0.637.

For “GATGATTGTTCTCCCAGCTGATGAATTCTAAGTATCGAGTAAACAAATTTTCCTAATCTTTCTGTTCAAGCGCCATCTAC”, which binding signal (RPM ratio (pull-down/input)) is on record?
Its binding signal (RPM ratio (pull-down/input)) is 0.47.

“GATGATTGTTCTCCCAGCTGATGAATTGAGTTCTTCGAGTAAACAAATTTTCCTAATCTTTCTGTTCAAGCGCCATCTAC” was tested. Which binding signal (RPM ratio (pull-down/input)) did it give?
The binding signal (RPM ratio (pull-down/input)) was 0.656.

With “GATGATTGTTCTCCCAGCTGATGAATTTTATGACTCGAGTAAACAAATTTTCCTAATCTTTCTGTTCAAGCGCCATCTAC” as the sequence, how does the binding signal (RPM ratio (pull-down/input)) read?
The binding signal (RPM ratio (pull-down/input)) was 0.491.

How did the binding signal (RPM ratio (pull-down/input)) turn out when “GATGATTGTTCTCCCAGCTGATGAATTTGGCCTCTCGAGTAAACAAATTTTCCTAATCTTTCTGTTCAAGCGCCATCTAC” was run?
The binding signal (RPM ratio (pull-down/input)) was 5.4.

For “GATGATTGTTCTCCCAGCTGATGAATTCGTATCCTCGAGTAAACAAATTTTCCTAATCTTTCTGTTCAAGCGCCATCTAC”, which binding signal (RPM ratio (pull-down/input)) is on record?
The binding signal (RPM ratio (pull-down/input)) was 1.65.

Which binding signal (RPM ratio (pull-down/input)) does the source give for “GATGATTGTTCTCCCAGCTGATGAATTCCTATAATCGAGTAAACAAATTTTCCTAATCTTTCTGTTCAAGCGCCATCTAC” here?
Its binding signal (RPM ratio (pull-down/input)) is 0.305.

How did the binding signal (RPM ratio (pull-down/input)) turn out when “GATGATTGTTCTCCCAGCTGATGAATTTTGATTATCGAGTAAACAAATTTTCCTAATCTTTCTGTTCAAGCGCCATCTAC” was run?
Its binding signal (RPM ratio (pull-down/input)) is 4.43.

“GATGATTGTTCTCCCAGCTGATGAATTATGTCCCTCGAGTAAACAAATTTTCCTAATCTTTCTGTTCAAGCGCCATCTAC” was tested. Which binding signal (RPM ratio (pull-down/input)) did it give?
The binding signal (RPM ratio (pull-down/input)) was 1.75.

Which binding signal (RPM ratio (pull-down/input)) does the source give for “GATGATTGTTCTCCCAGCTGATGAATTGGATACATCGAGTAAACAAATTTTCCTAATCTTTCTGTTCAAGCGCCATCTAC” here?
The binding signal (RPM ratio (pull-down/input)) was 0.808.
